{"source": "PubChem BioAssay AID485294", "about": "(National Center for Advancing Translational Sciences (NCATS), 2010)", "note": "About 150 (0.041%) of roughly 370,000 compounds were called active. Inconclusive results, whose numbers are uncertain, are shown with a selection of clear calls. Calls follow the shape of the dose curve; as a rule, active = well fitted inhibition curve with a large enough effect; inconclusive = small, poorly fitted or top-dose-only effect; inactive = flat fitted curve, though single readings scatter. Potencies of inconclusive entries are left out as doubtful fits. Potency is read from the fitted curve at half-maximal effect; tags tell the direction and shape of the fitted curve.", "data": [{"target": "Beta-lactamase (Escherichia coli (strain K12)) (UniProt P00811)", "sequence (P00811 whole entry, looked up)": "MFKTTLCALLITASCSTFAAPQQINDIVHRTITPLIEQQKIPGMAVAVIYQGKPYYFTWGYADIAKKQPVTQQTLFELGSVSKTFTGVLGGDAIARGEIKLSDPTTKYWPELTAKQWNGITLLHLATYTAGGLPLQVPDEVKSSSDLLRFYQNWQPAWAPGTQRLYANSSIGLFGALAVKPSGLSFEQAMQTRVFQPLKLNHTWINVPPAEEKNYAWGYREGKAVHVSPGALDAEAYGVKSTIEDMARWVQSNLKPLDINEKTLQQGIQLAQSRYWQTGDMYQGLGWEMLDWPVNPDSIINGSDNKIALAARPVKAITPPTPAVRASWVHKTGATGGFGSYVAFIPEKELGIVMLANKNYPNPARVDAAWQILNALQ", "test": "qHTS Inhibitors of AmpC Beta-Lactamase (assay with detergent); also: nearly all actives have a fitted effect of over 25% in size;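 as to activity change, negative = inhibition: 0% = no-compound wells and -100% = no-enzyme wells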", "settings": "AmpC hydrolysis of nitrocefin, absorbance 480 nm, 0.01% Triton; activity change, negative = inhibition: at 114 µM (top of the series)", "procedure,_shortened": "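20 mM phosphate pH 7.0 + 0.01% (detergent screen) or 0.0001% Triton X-100; 5.3 nM AmpC reagent; cpd preinc 15 min RT; nitrocefin (800 uM stock) to start; A480 q20 s × 4 min; Activity was normalised to no-enzyme and no-compound control wells.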", "values": [{"smiles": "C/C(=N\\O)c1ccc(N2C(=O)C3CC=C(Cl)CC3C2=O)cc1", "note": "(centres undefined)", "Potency": "inconclusive [inhibitor, single point]"}, {"smiles": "Cc1onc2c(=O)n(-c3ccccc3)nc(-c3ccccc3)c12", "Potency": "inconclusive [inhibitor, full curve, poor fit]"}, {"smiles": "O=[N+]([O-])c1cc(/C=N/N2CCN(Cc3ccccc3)CC2)ccc1Cl", "activity change, negative = inhibition": "inactive: -5.1%"}, {"smiles": "Cc1nn(Cc2ccc(C(=O)Nc3ccccc3F)cc2)c(C)c1Cl", "activity change, negative = inhibition": "inactive: 1.56%"}, {"smiles": "COc1cccc(CN2C(=O)CCC2(C)C(=O)NC2CCCCC2)c1", "note": "(centres undefined)", "Potency": "inconclusive [inhibitor, full curve, poor fit]"}, {"smiles": "CCOc1ccc(Cl)cc1S(=O)(=O)NCc1ccccn1", "activity change, negative = inhibition": "inactive: 0.108%"}, {"smiles": "Cc1cccnc1NC(=O)COc1ccc2oc3c(c2c1)CCCC3", "Potency": "inconclusive [inhibitor, single point]"}, {"smiles": "CN(C)c1ccccc1-c1csc(N2CCC(C(N)=O)CC2)n1", "Potency": "inconclusive [inhibitor, full curve, poor fit]"}, {"smiles": "CCCCC(c1nnnn1C1CCCC1)N1CCN(C2CCCCC2)CC1", "note": "(centres undefined)", "Potency": "inconclusive [inhibitor, partial curve]"}, {"smiles": "O=Cc1nc(-c2ccc(Cl)cc2)n2ccccc12", "Potency": "inconclusive [inhibitor, full curve, poor fit]"}, {"smiles": "Cc1ccc(C)c(N(C)S(=O)(=O)c2cccc3nsnc23)c1", "Potency": "inconclusive [inhibitor, full curve]"}, {"smiles": "COc1cccc(OCC(Cn2c(C)nc3ccccc32)OC(C)=O)c1", "note": "(centres undefined)", "activity change, negative = inhibition": "inactive: -7.67%"}, {"smiles": "CCCCOc1ccc(C(CC(=O)NC)C(=O)O)cc1", "note": "(centres undefined)", "Potency": "inconclusive [inhibitor, full curve, poor fit]"}, {"smiles": "NS(=O)(=O)c1ccc(NC(=S)N2CCN(c3ccccc3Cl)CC2)cc1", "Potency": "inconclusive [inhibitor, single point]"}, {"smiles": "CCC(C)NC(=O)CCCCCn1c(=O)[nH]c2cc(OC)c(OC)cc2c1=O", "note": "(centres undefined)", "Potency": "inconclusive [inhibitor, partial curve]"}, {"smiles": "COC(=O)/C(=C(O)\\C=C\\c1ccccc1[N+](=O)[O-])c1nc2ccccc2[nH]1", "Potency": "inconclusive [inhibitor, partial curve, poor fit]"}, {"smiles": "Cc1ccc(C(=O)Nc2ncc([N+](=O)[O-])s2)cc1", "Potency": "inconclusive [inhibitor, full curve, poor fit]"}, {"smiles": "CNC(=O)c1ccc(NC(=O)Cc2ccc(S(=O)(=O)N3CCOCC3)s2)cc1", "activity change, negative = inhibition": "inactive: -14.5%"}, {"smiles": "CC(C)CC(=O)NC(=S)NCCc1ccccc1", "Potency": "inconclusive [inhibitor, partial curve, poor fit]"}, {"smiles": "Cc1ccccc1C(=O)NC1CCN(CC(=O)Nc2ccccc2)CC1", "activity change, negative = inhibition": "inactive: -4.39%"}, {"smiles": "Cc1ccccc1CN1C(=O)Nc2ccccc2C(=O)N1C(C)(C)C", "Potency": "inconclusive [inhibitor, full curve, poor fit]"}, {"smiles": "CC1CN(Cc2nc3c(c(=O)n(C)c(=O)n3C)n2CC(O)CO)CC(C)O1", "note": "(centres undefined)", "Potency": "inconclusive [inhibitor, partial curve, poor fit]"}, {"smiles": "CC(=O)CC(=O)NC(=NC1CCCCC1)Nc1nc(C)cc(C)n1", "Potency": "inconclusive [inhibitor, single point]"}, {"smiles": "CCOC(=O)c1cccc(NC(=O)C2CCC(CNc3c(N4CCOCC4)c(=O)c3=O)CC2)c1", "note": "(centres undefined)", "Potency": "inconclusive [inhibitor, full curve, poor fit]"}, {"smiles": "CCOc1ccccc1NCc1nnc(-c2ccccc2)o1", "activity change, negative = inhibition": "inactive: 3.89%"}, {"smiles": "COc1cccc2c1Oc1ncccc1N(C(=O)CCC(=O)NCc1ccc(N(C)C)cc1)C2", "activity change, negative = inhibition": "inactive: 2.9%"}, {"smiles": "Cc1ccccc1C(=O)c1cccn1CC(=O)O", "Potency": "inconclusive [inhibitor, single point]"}, {"smiles": "COC(=O)c1nn(-c2ccc(Cl)cc2)c(=O)cc1Sc1ccccn1", "Potency": "inconclusive [inhibitor, full curve, poor fit]"}, {"smiles": "O=C(NCC(c1ccco1)N1CCc2ccccc2C1)C(=O)Nc1ccc(F)cc1F", "note": "(centres undefined)", "Potency": "inconclusive [inhibitor, single point]"}, {"smiles": "CC(C)OCCCNC(=O)c1ccc(Br)cc1", "activity change, negative = inhibition": "inactive: -12.3%"}, {"smiles": "COCCCN(C(=O)c1cc(-c2ccco2)nc2ccccc12)c1c(N)n(Cc2ccccc2)c(=O)[nH]c1=O", "activity change, negative = inhibition": "inactive: -16.5%"}, {"smiles": "Cc1ccc2nc(SC(C)C(=O)N3CCOCC3)[nH]c2c1", "note": "(centres undefined)", "activity change, negative = inhibition": "inactive: -7.78%"}, {"smiles": "COc1cc(C)c(CNc2ccc(OC)c(OC)c2)cc1C", "Potency": "inconclusive [inhibitor, full curve, poor fit]"}, {"smiles": "CN(C)CCNC(=O)c1c(NC(=O)c2ccccc2)sc2c1CCCC2", "Potency": "inconclusive [inhibitor, full curve, poor fit]"}, {"smiles": "Cc1cc2nc(N=C(N)N)nc(C)c2cc1C", "Potency": "inconclusive [inhibitor, full curve, poor fit]"}, {"smiles": "COc1ccc(C(=O)NNC(=O)Cc2ccc([N+](=O)[O-])cc2)cc1", "activity change, negative = inhibition": "inactive: -8.08%"}, {"smiles": "O=C(Nc1nnc(-c2ccccc2)o1)c1cc(Cl)sc1Cl", "Potency": "inconclusive [inhibitor, partial curve, poor fit]"}, {"smiles": "C=CCN1C(=O)c2ccc(C(=O)N(CC(C)C)c3c(N)n(CCCC)c(=O)[nH]c3=O)cc2C1=O", "Potency": "inconclusive [inhibitor, full curve, poor fit]"}, {"smiles": "COc1ccc(S(=O)(=O)N(C)C)cc1NC(=O)CCNC(=O)c1ccco1", "Potency": "inconclusive [inhibitor, partial curve, poor fit]"}, {"smiles": "N#Cc1c(N2CCOCC2)nsc1-c1ccc(C(F)(F)F)cc1", "Potency": "inconclusive [inhibitor, full curve, poor fit]"}, {"smiles": "S=C(Nc1ccc(Cl)cc1)NC1CCCCC1", "activity change, negative = inhibition": "inactive: 5.83%"}, {"smiles": "CCCc1c(C)nn(C(=O)/C(C#N)=N/Nc2ccccc2[N+](=O)[O-])c1C", "Potency": "inconclusive [inhibitor, full curve, poor fit]"}, {"smiles": "O=C(CN1C(=O)CSc2ncccc21)Nc1ccccc1F", "Potency": "inconclusive [inhibitor, full curve]"}, {"smiles": "Cc1cc(C)cc(NC(=O)C(=O)NCCCN2CCCC2=O)c1", "Potency": "inconclusive [inhibitor, full curve, poor fit]"}, {"smiles": "COc1cc(N/C(=N/S(=O)(=O)c2ccccc2)c2ccccc2)ncn1", "activity change, negative = inhibition": "inactive: 5.83%"}, {"smiles": "CCCCCC(=O)Nc1sc(C)c(C)c1C#N", "activity change, negative = inhibition": "inactive: 5.25%"}, {"smiles": "C[C@]12CC[C@@H]3c4ccc(O)cc4CC[C@H]3[C@@H]1CCC2=O", "activity change, negative = inhibition": "inactive: -0.473%"}, {"smiles": "O=C(c1c(F)cccc1F)N1CCN(c2ccccc2F)CC1", "Potency": "inconclusive [inhibitor, full curve]"}, {"smiles": "Cc1c(CC(=O)O)c(=O)oc2cc(OCc3ccc(F)cc3F)ccc12", "activity change, negative = inhibition": "inactive: -12.2%"}, {"smiles": "O=C(O)c1ccc(SCc2cnc(Cl)s2)cc1", "Potency": "inconclusive [inhibitor, full curve]"}, {"smiles": "Cn1nccc1CNC(=O)c1c(Cl)cnn1C", "Potency": "inconclusive [inhibitor, full curve, poor fit]"}, {"smiles": "CCSc1nnc(NC(=O)c2ccccn2)s1", "activity change, negative = inhibition": "inactive: 3.5%"}, {"smiles": "COc1ccc(C)cc1Nc1nc(-c2c(C)[nH]c3ccccc23)cs1", "Potency": "inconclusive [inhibitor, full curve]"}, {"smiles": "CCOc1cc(CNCCSc2nnnn2C)cc(Br)c1OCc1ccc(F)cc1", "activity change, negative = inhibition": "inactive: -14.1%"}, {"smiles": "COc1nc(N2CCCCCC2)nc(N2CCCCCC2)n1", "activity change, negative = inhibition": "inactive: -1.46%"}, {"smiles": "O=C(CCc1ccccc1)NC1C2CC3CC(C2)CC1C3", "note": "(centres undefined)", "Potency": "inconclusive [inhibitor, full curve, poor fit]"}, {"smiles": "CCOc1ccccc1OCCCC(=O)Nc1ccc(OC)nc1", "Potency": "inconclusive [inhibitor, single point]"}, {"smiles": "CCCOc1cccc(-c2cc(C(=O)N/N=C/c3ccccn3)c3ccccc3n2)c1", "Potency": "inconclusive [inhibitor, full curve, poor fit]"}, {"smiles": "COc1ccc(N2C(=O)CC(Sc3ccccc3C(=O)O)C2=O)c([N+](=O)[O-])c1", "note": "(centres undefined)", "Potency": "inconclusive [inhibitor, single point]"}, {"smiles": "O=C(NC1CCCC1)C1CCC(CNS(=O)(=O)c2cccs2)CC1", "note": "(centres undefined)", "Potency": "inconclusive [inhibitor, partial curve]"}, {"smiles": "COCc1nnc(NC(=O)CCCCCN2C(=O)c3ccccc3C2=O)s1", "Potency": "inconclusive [inhibitor, single point]"}, {"smiles": "CC1=C(C(=O)Nc2ccc([N+](=O)[O-])cc2)C(c2cccc(C(F)(F)F)c2)NC(=S)N1c1ccccc1", "note": "(centres undefined)", "activity change, negative = inhibition": "inactive: -6.21%"}, {"smiles": "CCS(=O)(=O)c1nc(S(=O)(=O)c2ccc(Cl)cc2)c(N2CCc3ccccc3C2)s1", "Potency": "inconclusive [inhibitor, partial curve]"}, {"smiles": "CN(CC(=O)NCc1cccnc1)S(=O)(=O)c1ccc2c(c1)c(=O)n(C)c(=O)n2C", "Potency": "inconclusive [inhibitor, partial curve, poor fit]"}, {"smiles": "CCOc1ccc(N2C(=O)CC(N3CCC(NC(=O)Nc4ccccc4)CC3)C2=O)cc1", "note": "(centres undefined)", "Potency": "inconclusive [inhibitor, full curve]"}, {"smiles": "Cc1ccnc(SCC(=O)N2CCN(C(c3ccccc3)c3ccccc3)CC2)n1", "Potency": "inconclusive [inhibitor, full curve, poor fit]"}, {"smiles": "Cc1ccc(-c2nc(C#N)c(NCCN3CCCCC3)o2)cc1", "activity change, negative = inhibition": "inactive: 1.43%"}, {"smiles": "CCOC(=O)N1CCN(C(=O)CSc2nnc(-c3ccccc3OC)o2)CC1", "activity change, negative = inhibition": "inactive: -2.61%"}, {"smiles": "C=CCN(c1ccccc1)S(=O)(=O)c1cccc(C(=O)NNC(=O)c2ccccc2O)c1", "Potency": "inconclusive [inhibitor, full curve, poor fit]"}]}]}
